Source: the supplement of paper PMC4967469
IC50 is the fitted dose that halves viability relative to control wells, and lower means more sensitive; where the fit passes the top or lowest dose, that dose stands as a limit. AUC sums up the same curve from the lowest dose to the 256-fold higher top dose; it is 1 without any effect and falls as sensitivity rises. For some of these results: Any top dose called inferred was calculated from the reported fits.

Tests used:
Experiment in all cases: Viability of human cancer cell lines after 72 h of drug (GDSC screen)
Lapatinib = compound: CS(=O)(=O)CCNCc1ccc(-c2ccc3ncnc(Nc4ccc(OCc5cccc(F)c5)c(Cl)c4)c3c2)o1 [Lapatinib]; conditions: top dose 2 µM
Method: (§1)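 Human cancer cell lines in 384-well plates, medium with 10% serum, drug for 72 h over a 256-fold dose range (nine 2-fold or five 4-fold steps up to the top dose). Adherent lines were fixed and stained with the nucleic acid dye Syto60, suspension lines read with resazurin; signal relative to control wells, capped at 0 and 100%. One two-parameter sigmoid per drug and line, fitted in a mixed model over all curves with the slope shared within a line.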

SB590885 = compound: CN(C)CCOc1ccc(-c2nc(-c3ccncc3)c(-c3ccc4c(c3)CC/C4=N\O)[nH]2)cc1 [SB590885]; conditions: top dose 5 µM; top dose inferred
Method: as §1

PD-173074 = compound: CCN(CC)CCCCNc1ncc2cc(-c3cc(OC)cc(OC)c3)c(NC(=O)NC(C)(C)C)nc2n1 [PD-173074]; conditions: top dose 2 µM; top dose inferred
Method: as §1

TGX221 = compound: Cc1cc(C(C)Nc2ccccc2)c2nc(N3CCOCC3)cc(=O)n2c1 [TGX221]; conditions: top dose 10 µM
Method: as §1

Cell Line | AUC (Lapatinib) | IC50 (Lapatinib) [nM] | AUC (SB590885) | IC50 (SB590885) [nM] | AUC (PD-173074) | IC50 (PD-173074) [nM] | AUC (TGX221) | IC50 (TGX221) [nM]
IMR-5 (neuroblastoma, adherent) | 0.992 | > 2000 | 0.974 | > 5000 | 0.989 | > 2000 | 0.992 | > 10000
NCI-SNU-16 (stomach, suspension) | 0.987 | > 2000 | 0.99 | > 5000 | 0.741 | 554 | 0.99 | > 10000
CW-2 (large intestine, adherent) | 0.974 | > 2000 | 0.989 | > 5000 | 0.988 | > 2000 | 0.988 | > 10000
JiyoyeP-2003 (Burkitt lymphoma, suspension) | 0.99 | > 2000 | 0.977 | > 5000 | 0.981 | > 2000 | 0.988 | > 10000
D-283MED (medulloblastoma, adherent) | 0.98 | > 2000 | 0.971 | > 5000 | 0.915 | > 2000 | 0.972 | > 10000
NCI-H847 (small cell lung carcinoma, adherent) | 0.993 | > 2000 | 0.993 | > 5000 | 0.991 | > 2000 | 0.993 | > 10000
TUR (B-cell lymphoma, suspension) | 0.988 | > 2000 | 0.988 | > 5000 | 0.984 | > 2000 | 0.987 | > 10000
SF126 (glioma, adherent) | 0.983 | > 2000 | 0.986 | > 5000 | 0.96 | > 2000 | 0.874 | > 10000
VA-ES-BJ (soft tissue, adherent) | 0.969 | > 2000 | 0.969 | > 5000 | 0.983 | > 2000 | 0.975 | > 10000
NCI-H2141 (small cell lung carcinoma, suspension) | 0.99 | > 2000 | 0.991 | > 5000 | 0.99 | > 2000 | 0.99 | > 10000
KNS-81-FD (glioma, adherent) | 0.932 | > 2000 | 0.98 | > 5000 | 0.979 | > 2000 | 0.866 | > 10000
MPP-89 (mesothelioma, adherent) | 0.929 | > 2000 | 0.981 | > 5000 | 0.926 | > 2000 | 0.773 | 5130
KARPAS-299 (anaplastic large cell lymphoma, suspension) | 0.991 | > 2000 | 0.98 | > 5000 | 0.972 | > 2000 | 0.992 | > 10000
D-392MG (glioma, adherent) | 0.923 | > 2000 | 0.974 | > 5000 | 0.962 | > 2000 | 0.83 | 9640
TK10 (kidney, adherent) | 0.833 | 1680 | 0.981 | > 5000 | 0.953 | > 2000 | 0.931 | > 10000
IST-SL1 (small cell lung carcinoma, semi-adherent) | 0.969 | > 2000 | 0.986 | > 5000 | 0.987 | > 2000 | 0.987 | > 10000
LAN-6 (neuroblastoma, adherent) | 0.982 | > 2000 | 0.985 | > 5000 | 0.985 | > 2000 | 0.985 | > 10000
JM1 (B-cell lymphoma, suspension) | 0.99 | > 2000 | 0.922 | > 5000 | 0.98 | > 2000 | 0.979 | > 10000
NCI-H1836 (small cell lung carcinoma, suspension) | 0.988 | > 2000 | 0.988 | > 5000 | 0.988 | > 2000 | 0.985 | > 10000
LS-1034 (large intestine, adherent) | 0.985 | > 2000 | 0.986 | > 5000 | 0.979 | > 2000 | 0.985 | > 10000

Cell Line | AUC (Lapatinib) | IC50 (Lapatinib) [nM] | AUC (SB590885) | IC50 (SB590885) [nM] | AUC (PD-173074) | IC50 (PD-173074) [nM] | AUC (TGX221) | IC50 (TGX221) [nM]
ES-2 (ovary, adherent) | 0.991 | > 2000 | 0.892 | 4650 | 0.99 | > 2000 | 0.991 | > 10000
MRK-nu-1 (breast, suspension) | 0.977 | > 2000 | 0.99 | > 5000 | 0.988 | > 2000 | 0.903 | > 10000
YT (lymphoid neoplasm, suspension) | 0.989 | > 2000 | 0.992 | > 5000 | 0.961 | > 2000 | 0.987 | > 10000
P31-FUJ (acute myeloid leukaemia, suspension) | 0.996 | > 2000 | 0.996 | > 5000 | 0.994 | > 2000 | 0.996 | > 10000
NCI-H1436 (small cell lung carcinoma, suspension) | 0.982 | > 2000 | 0.947 | > 5000 | 0.955 | > 2000 | 0.965 | > 10000
EW-11 (Ewing sarcoma, adherent) | 0.97 | > 2000 | 0.981 | > 5000 | 0.98 | > 2000 | 0.978 | > 10000
SK-N-FI (neuroblastoma, adherent) | 0.99 | > 2000 | 0.99 | > 5000 | 0.989 | > 2000 | 0.989 | > 10000
SLVL (B-cell lymphoma, suspension) | 0.985 | > 2000 | 0.986 | > 5000 | 0.962 | > 2000 | 0.985 | > 10000
A388 (skin, adherent) | 0.749 | 734 | 0.961 | > 5000 | 0.984 | > 2000 | 0.97 | > 10000
ES5 (Ewing sarcoma, adherent) | 0.983 | > 2000 | 0.951 | > 5000 | 0.877 | > 2000 | 0.98 | > 10000
AMO-1 (haematopoietic neoplasm, suspension) | 0.985 | > 2000 | 0.991 | > 5000 | 0.989 | > 2000 | 0.991 | > 10000
NU-DUL-1 (B-cell lymphoma, suspension) | 0.991 | > 2000 | 0.977 | > 5000 | 0.964 | > 2000 | 0.894 | 7840
EW-18 (Ewing sarcoma, suspension) | 0.984 | > 2000 | 0.977 | > 5000 | 0.967 | > 2000 | 0.977 | > 10000
EoL-1-cell (haematopoietic neoplasm, suspension) | 0.987 | > 2000 | 0.924 | > 5000 | 0.897 | 1980 | 0.944 | > 10000
NAMALWA (Burkitt lymphoma, suspension) | 0.986 | > 2000 | 0.979 | > 5000 | 0.985 | > 2000 | 0.987 | > 10000
CPC-N (small cell lung carcinoma, suspension) | 0.982 | > 2000 | 0.985 | > 5000 | 0.978 | > 2000 | 0.851 | 8790
ETK-1 (biliary tract, adherent) | 0.905 | > 2000 | 0.975 | > 5000 | 0.98 | > 2000 | 0.955 | > 10000
GR-ST (lymphoblastic leukaemia, suspension) | 0.976 | > 2000 | 0.944 | > 5000 | 0.893 | > 2000 | 0.943 | > 10000
697 (lymphoblastic leukaemia, suspension) | 0.989 | > 2000 | 0.969 | > 5000 | 0.88 | 1380 | 0.882 | 6990
LB1047-RCC (kidney, adherent) | 0.864 | > 2000 | 0.983 | > 5000 | 0.937 | > 2000 | 0.945 | > 10000

Cell Line | AUC (Lapatinib) | IC50 (Lapatinib) [nM] | AUC (SB590885) | IC50 (SB590885) [nM] | AUC (PD-173074) | IC50 (PD-173074) [nM] | AUC (TGX221) | IC50 (TGX221) [nM]
MOLM-13 (acute myeloid leukaemia, suspension) | 0.98 | > 2000 | 0.974 | > 5000 | 0.966 | > 2000 | 0.911 | > 10000
GI-1 (glioma, adherent) | 0.93 | > 2000 | 0.987 | > 5000 | 0.975 | > 2000 | 0.959 | > 10000
MONO-MAC-6 (acute myeloid leukaemia, suspension) | 0.958 | > 2000 | 0.964 | > 5000 | 0.94 | > 2000 | 0.949 | > 10000
HOP-62 (lung adenocarcinoma, adherent) | 0.972 | > 2000 | 0.985 | > 5000 | 0.987 | > 2000 | 0.973 | > 10000
SK-MEL-1 (melanoma, suspension) | 0.989 | > 2000 | 0.875 | 3810 | 0.993 | > 2000 | 0.985 | > 10000
HCC2157 (breast, suspension) | 0.93 | > 2000 | 0.987 | > 5000 | 0.958 | > 2000 | 0.928 | > 10000
Farage (B-cell lymphoma, suspension) | 0.993 | > 2000 | 0.98 | > 5000 | 0.966 | > 2000 | 0.97 | > 10000
KNS-42 (glioma, adherent) | 0.94 | > 2000 | 0.981 | > 5000 | 0.984 | > 2000 | 0.862 | > 10000
LC-2-ad (lung adenocarcinoma, adherent) | 0.937 | > 2000 | 0.975 | > 5000 | 0.922 | > 2000 | 0.949 | > 10000
SW954 (urogenital system, adherent) | 0.868 | 1850 | 0.982 | > 5000 | 0.938 | > 2000 | 0.977 | > 10000
LXF-289 (lung adenocarcinoma, adherent) | 0.941 | > 2000 | 0.963 | > 5000 | 0.946 | > 2000 | 0.856 | 7860
NCI-H1869 (lung squamous cell carcinoma, adherent) | 0.899 | > 2000 | 0.985 | > 5000 | 0.984 | > 2000 | 0.928 | > 10000
SUP-M2 (anaplastic large cell lymphoma, suspension) | 0.993 | > 2000 | 0.994 | > 5000 | 0.994 | > 2000 | 0.994 | > 10000
KG-1 (acute myeloid leukaemia, suspension) | 0.99 | > 2000 | 0.989 | > 5000 | 0.531 | 150 | 0.978 | > 10000
ES6 (Ewing sarcoma, adherent) | 0.921 | > 2000 | 0.982 | > 5000 | 0.98 | > 2000 | 0.863 | > 10000
HDLM-2 (Hodgkin lymphoma, suspension) | 0.938 | > 2000 | 0.987 | > 5000 | 0.95 | > 2000 | 0.984 | > 10000
BB49-HNC (head and neck, adherent) | 0.967 | > 2000 | 0.976 | > 5000 | 0.948 | > 2000 | 0.26 | 95
LB373-MEL-D (melanoma, adherent) | 0.962 | > 2000 | 0.99 | > 5000 | 0.99 | > 2000 | 0.963 | > 10000
GOTO (neuroblastoma, adherent) | 0.983 | > 2000 | 0.93 | > 5000 | 0.907 | > 2000 | 0.976 | > 10000
